Assay results as given in PubChem BioAssay (NCI).
Values joined by “and” are separate entries in the source; they are usually repeats but may differ in a detail not shown here. Equal entries are not always repeated.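 Briefly, cells in 96-well plates were exposed to five compound concentrations for 48 h, and endpoints were estimated by linear interpolation. The concentration for 50% growth inhibition is given as GI50. The concentration for full growth arrest is given as TGI.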

Tested on: NCI-H322M lung
Assay: NCI tumour cell line growth inhibition, 48 h

| Structure (SMILES) | TGI | GI50 |
| --- | --- | --- |
| Cc1ccccc1C(C#N)C(=O)C(=O)Nc1cccc(Cl)c1 (configuration not stated) | > 100 µM |  |
| N#CCCN(CCC#N)c1ccc(/C=C2\N=C(c3ccccc3)N(c3ccccn3)C2=O)cc1 | > 100 µM |  |
| CC(C)[C@](O)(C(=O)OCC1CC[N+]2([O-])CC[C@@H](O)C12)[C@H](C)O (some centres not stated) | > 375 µM |  |
| COc1ccc2c(c1)N=C1CSC(c3cc([N+](=O)[O-])ccc3Cl)N1C2 (configuration not stated) | 47.5 µM |  |
| OCCN(CCO)c1ccc2c(c1)Cc1ccccc1-2 | > 100 µM |  |
| NCc1nnn(Cc2ccccc2)c1N | > 100 µM |  |
| CCC(C)C(NC(=O)C1CCCN1C(=O)C(NC(=O)C(C)N)C(C)C)C(N)=O (configuration not stated) | > 100 µM | > 100 µM |
| CN(C)c1nc(NN)c2c(-c3ccccc3)c(-c3ccccc3)oc2n1 | > 100 µM |  |
| C[C@@]12CCC(=O)C=C1CC[C@H]1C2=CC[C@]2(C)C1CC[C@@]2(C)O (some centres not stated) | > 100 µM |  |
| CCOC(=O)/C(=C/c1ccc(C#N)cc1)N(CC)CC | > 100 µM |  |
| O=c1[nH]nc(Cc2ccc(Cl)cc2)n1/N=C\CC/C=N\n1c(Cc2ccc(Cl)cc2)n[nH]c1=O | > 100 µM |  |
| CC(C)(C)C(=O)C1CC(=O)c2ccccc2C1=O (configuration not stated) | 74.8 µM |  |
| O=C(OC(=C(c1ccccc1)c1ccccc1)N1CCCC1=S)C(c1ccccc1)c1ccccc1 | > 10 µM |  |
| CC(=O)N[C@H]1CCCC[C@@H]1OC(C)=O | > 100 µM |  |
| CCOC(=O)c1cn(Cc2ccccc2)c(=O)n1Cc1ccccc1 | > 100 µM |  |
| COC1=CC(c2ccc[nH]2)=N/C1=C\c1[nH]c(C)c(C(=O)CCCCC(=O)Nc2ccccc2)c1C | 29.9 µM | 9.86 µM |
| CC1CCC2C(C(=O)O[C@H]3C4CCO[C@@H](OC5OC(CO)C(O)C(O)C5O)C4[C@@]4(CO)O[C@@H]34)=CO[C@@H](OC3OC(CO)C(O)C(O)C3O)C12 (some centres not stated) | > 10 µM |  |
| CCN(CC)CCCNc1nc2ccccc2c2[nH]c3ccc(OC)cc3c12 | 5.89 µM |  |
| CCOC(=O)c1c(-c2ccc(OC)cc2)c(C#N)c(=S)n(C2OC(CO)C(O)C(O)C2O)c1-c1ccccc1 (configuration not stated) | > 100 µM |  |
| C=C1C(=O)O[C@H]2[C@H]1CC/C(COC(=O)NCc1c[nH]c3ccc(Cl)cc13)=C\CC[C@@]1(C)O[C@@H]21 | 8.22 µM | 2.58 µM |
| CCOC(=O)[C@@]12CCC(C1=O)[C@](C)(O)C[C@@H]2c1ccccc1 | > 100 µM |  |
| Nc1ncnc2c1ncn2C1OC(CO)=CC1O (configuration not stated) | > 37.5 µM |  |
| O=C(Cc1ccc(Cl)c(Cl)c1)N(CCc1ccc(Cl)c(Cl)c1)CCN1CCCC1 | 6.51 µM |  |
| Cc1ccc(S(=O)(=O)N2CCc3ccc(O)c4c3C2Cc2cc(Cl)ccc2-4)cc1 (configuration not stated) | 17.2 µM | 1.91 µM |
| COc1ccc2c(c1)CCC1C2CC[C@]2(C)/C(=N/OC(=O)Cc3ccccc3)CCC12 (some centres not stated) | 51.3 µM | 26 µM |
| CC(=O)OCC1OC(n2c(N)c(C#N)c(-c3ccc(C)cc3)c(C#N)c2=S)C(OC(C)=O)C(OC(C)=O)C1OC(C)=O (configuration not stated) | 29.5 µM |  |

| Structure (SMILES) | TGI | GI50 |
| --- | --- | --- |
| O=c1ccn2n1CCCCC2 | > 100 µM |  |
| NCCNC(=S)S | > 100 µM |  |
| CC(C)(C)C(=O)C(C(c1ccccc1)N1CCOCC1)N1CCOCC1 (configuration not stated) | > 100 µM |  |
| CN(C1=NCCO1)c1cccc2c1CCCC2 | > 10 µM |  |
| CCOC(=O)c1sc(Nc2ccc(Cl)cc2)nc1C | 7.6 µM | 2.48 µM |
| O=C(NC1=NC2C=CC([N+](=O)[O-])=CC2S1)C(=O)Nn1c(=S)[nH]c2ccccc2c1=O (configuration not stated) | > 100 µM |  |
| COc1ccccc1CNCCCN1C(=O)c2ccc3c4c(ccc(c24)C1=O)C(=O)N(CCCNCCCN)C3=O | 5.93 µM | 1.06 µM |
| COc1ccc([N+](=O)[O-])c(S(=O)(=O)c2ccc(Cl)cc2)n1 | 37.1 µM | 20.4 µM |
| CCOC(=O)c1c(C(F)(F)F)n([O-])c2ccc(OC)cc2[n+]1=O | > 100 µM | 10.4 µM |
| CNC(=O)CCCN(C)C(=O)CCCCC(=O)N(C)C | > 100 µM |  |
| Cn1cc(C2=C(c3cn(CCN)c4ccccc34)C(=O)NC2=O)c2ccccc21 | > 21.4 µM | 6.71 µM |
| Nc1nc2nc[nH]c2c(=O)[nH]1 | > 100 µM |  |
| Cn1c(-c2ccc(/C=N\N3CCN(/N=C/c4ccc(-c5c[n+]6ccsc6n5C)cc4)CC3)cc2)c[n+]2ccsc12 | > 100 µM |  |
| NS(=O)(=O)c1ccc(N2N=C3c4ccccc4CC3C2c2ccc(Cl)cc2)cc1 (configuration not stated) | 43.5 µM | 5.8 µM |
| S=C(S)N1CCN(c2ccc(Cl)c(Cl)c2)CC1 | > 100 µM |  |
| CC1=C(C(=O)NCc2ccccc2)C(c2ccccc2[N+](=O)[O-])C(C(=O)NCc2ccccc2)=C(C)N1 | 29.6 µM |  |
| NC1=N/C(=C2/CCNC(=O)c3[nH]c(Br)cc32)C(=O)N1 | > 100 µM | 12.6 µM and 38.3 µM |
| CC(=O)N=c1ccc2nc3c(cc(N)c4ccccc43)oc-2c1 | 8.15 µM | 2.52 µM |
| O=C(Nc1c(O)[nH]c(=S)[nH]c1=O)c1ccc2ccccc2n1 | > 100 µM |  |
| CN(CCCCN(C)CCc1ccc(Cl)c(Cl)c1)CCCCN1CCCC1 | 3.08 µM |  |
| O=C(/C=C\c1ccc(Cl)cc1Cl)c1cccs1 | > 100 µM |  |
| CC(C)(C)c1ccc(C(O)c2ccc(C(C)(C)C)cc2)cc1 | 33.2 µM |  |
| CC1(C)CN=C(Nc2cccc(C(F)(F)F)c2)S1 | > 100 µM |  |
| CCCN(CCC)c1ccc(/C=N/NC(=O)c2cccnc2)c(Cl)c1 | > 100 µM | 27.7 µM |
| C[C@@H]1C=C2C(=O)O[C@@H]3CC[C@H](C1)[C@]23O | 32.8 µM | 6.15 µM |
| Cc1cccc(-c2cc(=S)c3cc(N4CCCC4)ccc3[nH]2)c1 | > 100 µM |  |

| Structure (SMILES) | TGI | GI50 |
| --- | --- | --- |
| COc1ccc([C@H]2CC(=O)NCCCCN2)cc1 | > 100 µM |  |
| Cc1cc(Cl)cc2c1NC(=O)C2(O)C(C)C(=O)c1ccc(Cl)cc1 (configuration not stated) | > 100 µM |  |
| O=c1c2ccccc2c2nc3ccccc3nc2n1C1CCCCC1 | > 100 µM |  |
| O=[n+]1c2ccccc2n([O-])c2cc(Br)ccc21 | > 100 µM |  |
| NC1=NNC2(C(N)=N1)c1ccccc1-c1ccccc12 | > 10 µM |  |
| CN(C)CCCc1c[nH]c2ccccc12 | > 100 µM |  |
| Cc1[nH]c(=O)nc(NCCNCCO)c1C(=O)Nc1c2ccccc2nc2ccccc12 | > 100 µM |  |
| Nc1ccc(/C=N/Nc2ccnc3c(N)cccc23)c2cccnc12 | 3.6 µM | 1.77 µM |
| NCCCN1CCN(CC(=O)O)CCN(CCCN)CCN(CC(=O)O)CC1 | > 100 µM |  |
| Cc1n[nH]c(=O)n1/N=C/c1c[nH]c2ccccc12 | > 100 µM |  |
| N#CCCN(c1ccc(-c2nnc(NC(=O)CNNC(=O)CC(=O)Nc3ccccc3)s2)cc1)S(=O)(=O)c1ccccc1 | > 100 µM |  |
| CO[C@@H]1[C@H](OC(=O)NC(=O)CCl)CC[C@]2(CO2)[C@H]1[C@@]1(C)O[C@@H]1CC=C(C)C | 35.7 µM and 36.9 µM | 6.21 µM |
| N=c1ccc2c(c1)[nH]c1c3ccccc3[nH]c3cccc2c31 | 2.58 µM |  |
| Cn1c2ccccc2c(=NNc2ccccc2C(=O)O)c2ccccc21 | 45.7 µM |  |
| CN(C)c1ccc(/C=C(\NC(=O)c2ccccc2)C2NC(Cc3c[nH]c4ccccc34)C(=O)O2)cc1 (configuration not stated) | > 100 µM |  |
| O=[N+]([O-])O.[Ga] | > 10000 µM |  |
| COc1ccc2c(c1)OC[C@@H]1c3cc4c(cc3O[C@H]21)OCO4 | > 100 µM |  |
| NS(=O)(=O)c1ccc(CNc2nc(-c3cccs3)nc3ccc(I)cc23)cc1 | 34.8 µM |  |
| CN(C)CCNC(=O)c1cccc2[nH]c(-c3ccccc3)nc12 | 43.8 µM |  |
| COc1ccc(NC(=O)c2sc3nc(C)c(C(O)c4ccccc4)cc3c2N)cc1 (configuration not stated) | > 100 µM | 0.761 µM |
| CCCc1nc2c(C)cc(-c3nc4ccccc4n3C)cc2n1Cc1ccc(-c2ccccc2C(=O)O)cc1 | > 100 µM | > 100 µM |
| O=C(c1cccnc1)N1N=C(c2ccc(Cl)cc2)CC1(O)c1cc(F)c(Cl)cc1Cl (configuration not stated) | > 100 µM |  |
| COc1ccc2c(c1)CC[C@@H]1[C@@H]2CC[C@]2(C)C(c3ccco3)=C(C=O)C[C@@H]12 | 49.1 µM | 18.6 µM |
| COP1(=O)Oc2ccccc2C(=O)C(C(F)(F)F)(C(F)(F)F)O1 (configuration not stated) | > 100 µM |  |
| COc1cc2nc(Nc3cccc(F)c3)nc(Nc3cc(C)[nH]n3)c2cc1OC | 3.29 µM | 1.75 µM |
| Oc1c(C2=N[C@H]3CCCC[C@@H]3N2)ccc2ccccc12 | > 100 µM |  |

| Structure (SMILES) | TGI | GI50 |
| --- | --- | --- |
| NS(=O)(=O)c1ccc(CCN=C=S)cc1 | 26.6 µM | 13.7 µM |
| CC(C)n1c2c([n+](C)c1/C=C/c1ccccc1)C(=O)c1ccccc1C2=O | 1.93 µM |  |
| COC(=O)CCC/C=C\C[C@H]1C=CC(=O)/C1=C/C[C@@H](O)C/C=C\CC(F)(F)F | 11 µM | 3.25 µM |
| C=C(C)[C@@H]1CC[C@]2(C)[C@H](CC[C@@H]3[C@H]4[C@H]5OC[C@@]4(CCC5(C)C)CC[C@]32C)[C@@]1(C)CCCN | 3.17 µM | 1.75 µM |
| CN(C)c1ccc(/C=C(\NC(=O)c2ccccc2)C(=O)NC(CCC(=O)O)C(=O)O)cc1 (configuration not stated) | > 100 µM |  |
| Cc1cc(Cl)ccc1N=C1NC(=O)C(CC(=O)Nc2ccc(Cl)cc2Cl)S1 (configuration not stated) | > 100 µM |  |
| COc1cc([N+](=O)[O-])ccc1NC1=CC(=O)CCC1 | > 100 µM |  |
| CCCCCCCC/C=C\CCCCCCCC(=O)NCCN(CCN)C(=O)CCCCCCC/C=C\CCCCCCCC | > 100 µM |  |
| CCOC(=O)CCC(NC(=O)c1ccc(OCc2nc3ccccc3n3cccc23)cc1)C(=O)OCC (configuration not stated) | > 100 µM |  |
| O=C(CCc1cccc(O)c1)NCCc1ccc(O)cc1 | > 100 µM |  |
| CN(C)c1nc(-c2ccccc2)c(C(=O)c2c[nH]c3ccccc23)s1 | > 100 µM |  |
| CN(C)CC1(C)CC/C(=C\c2ccccc2)C1=O (configuration not stated) | > 100 µM |  |
| O=[N+]([O-])c1cc(Cl)cc2cc(Cl)cnc12 | > 100 µM |  |
| O=C(O)CC/C(=N\Nc1nsc2ccccc12)c1ccc(Cl)cc1 | > 79.9 µM |  |
| O=C(CCCl)NNC1=NCCN1 | > 100 µM |  |
| COc1ccc(C2=NN(C(C)=O)C(c3cn(-c4ccccc4)nc3-c3ccc(Cl)cc3)C2)cc1 (configuration not stated) | > 100 µM | > 100 µM |
| CCC(=C/[C@H](C)C/C=C/C(C)=C/[C@@H](C)C(=O)[C@@H](C)[C@H](O)[C@@H](C)CC)/C=C/[C@H]1OC(=O)C=C[C@H]1C | 2.85 µM | < 0.01 µM |
| CS(=O)(=O)Nc1ccc(Nc2c3ccccc3nc3ccccc23)cc1 | 28 µM |  |
| CC(CO)C1=CC(C#CCOCc2ccccc2)N(C(=O)Oc2ccccc2)c2ccccc21 (configuration not stated) | > 100 µM |  |
| CC12CCC[C@@](C)(C(=O)OC3OC(CO)C(O)C(O)C3O)[C@H]1CCC13CC4CC(OC4(CO)[C@H]1O)[C@@H]23 (some centres not stated) | > 100 µM |  |
| CC(C)OP(=O)(OC(C)C)C(=Nc1ccccc1)NNc1ccc([N+](=O)[O-])cc1 | > 100 µM |  |
| COC(=O)C(Cc1ccccc1)OC(=O)C(N)CC(=O)O (configuration not stated) | > 100 µM |  |
| COc1ccc(C(c2c(O)c3ccccc3n(C)c2=O)c2c(O)c3ccccc3n(C)c2=O)cc1 | > 100 µM |  |
